# Measured values from the supplement of paper PMC8728848.
# The other results are listed elsewhere or left out.
# Columns and labels:
# Assay in all cases: glycan array binding signal (z-score within array); higher = stronger binding
# Details in all cases: glycan notation: IUPAC condensed, linker removed
# [1] = molecular target: GlcNAc(b1-3)Gal(b1-4)GlcNAc(b1-3)Gal(b1-4)GlcNAc(b1-3)GalNAc
# Summary of the method: (§1)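 Negative Z-scores can be read as non-binding. The Z-score is calculated within each array and then averaged across arrays of one protein sequence at different concentrations or buffers and across linkers. Arrays, 3228 in all, were curated from the Consortium for Functional Glycomics database and kept only where the protein sequence was available.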
# [2] = molecular target: GlcNAc(b1-3)Gal(b1-4)GlcNAc(b1-3)GalNAc
# Summary of the method: as §1
# [3] = molecular target: GlcNAc(b1-3)Gal(b1-4)GlcNAc(b1-3)[GlcNAc(b1-3)Gal(b1-4)GlcNAc(b1-3)]GalNAc
# Summary of the method: as §1
# [4] = molecular target: GlcNAc(b1-3)Gal(b1-4)GlcNAc(b1-6)[Gal(b1-3)]GalNAc
# Summary of the method: as §1
# [5] = molecular target: GlcNAc(b1-3)Gal(b1-4)GlcNAc(b1-6)[GlcNAc(b1-3)Gal(b1-3)]GalNAc
# Summary of the method: as §1
# [6] = molecular target: GlcNAc(b1-3)Gal(b1-4)GlcNAc(b1-6)[GlcNAc(b1-3)]Gal(b1-4)GlcNAc
# Summary of the method: as §1
# [7] = molecular target: GlcNAc(b1-3)GalNAc
# Summary of the method: as §1
# [8] = molecular target: GlcNAc(b1-3)Man
# Summary of the method: as §1
# [9] = molecular target: GlcNAc(b1-3)[GlcNAc(b1-4)][GlcNAc(b1-6)]GlcNAc
# Summary of the method: as §1
# [10] = molecular target: GlcNAc(b1-3)[GlcNAc(b1-6)]Gal(b1-4)GlcNAc
# Summary of the method: as §1
# [11] = molecular target: GlcNAc(b1-3)[GlcNAc(b1-6)]GalNAc
# Summary of the method: as §1
# [12] = molecular target: GlcNAc(b1-4)Gal(b1-4)GlcNAc
# Summary of the method: as §1
# [13] = molecular target: GlcNAc(b1-4)GlcNAc
# Summary of the method: as §1
# [14] = molecular target: GlcNAc(b1-4)GlcNAc(b1-4)GlcNAc
# Summary of the method: as §1
# [15] = molecular target: GlcNAc(b1-4)GlcNAc(b1-4)GlcNAc(b1-4)GlcNAc(b1-4)GlcNAc
# Summary of the method: as §1
# [16] = molecular target: GlcNAc(b1-4)GlcNAc(b1-4)GlcNAc(b1-4)GlcNAc(b1-4)GlcNAc(b1-4)GlcNAc
# Summary of the method: as §1
# [17] = molecular target: GlcNAc(b1-4)[GlcNAc(b1-6)]GalNAc
# Summary of the method: as §1
# [18] = molecular target: GlcNAc(b1-6)Gal(b1-4)GlcNAc
# Summary of the method: as §1
# [19] = molecular target: GlcNAc(b1-6)GalNAc
# Summary of the method: as §1
# [20] = molecular target: GlcNAc6S(b1-3)Gal(b1-4)GlcNAc
# Summary of the method: as §1
# [21] = molecular target: Kdn(a2-3)Gal(b1-3)GalNAc
# Summary of the method: as §1
# [22] = molecular target: Kdn(a2-3)Gal(b1-3)GlcNAc
# Summary of the method: as §1
# [23] = molecular target: Kdn(a2-3)Gal(b1-4)Glc
# Summary of the method: as §1
# [24] = molecular target: Kdn(a2-3)Gal(b1-4)GlcNAc
# Summary of the method: as §1
# [25] = molecular target: Kdn(a2-3)Gal(b1-4)[Fuc(a1-3)]GlcNAc
# Summary of the method: as §1
# [26] = molecular target: Kdn(a2-6)Gal(b1-4)GlcNAc
# Summary of the method: as §1
# [27] = molecular target: Man(a1-2)Man(a1-2)Man(a1-3)Man
# Summary of the method: as §1
# [28] = molecular target: Man(a1-2)Man(a1-2)Man(a1-6)[Man(a1-3)]Man
# Summary of the method: as §1
# [29] = molecular target: Man(a1-2)Man(a1-3)Man
# Summary of the method: as §1
# [30] = molecular target: Man(a1-2)Man(a1-3)[Man(a1-2)Man(a1-6)]Man
# Summary of the method: as §1
# [31] = molecular target: Man(a1-2)Man(a1-3)[Man(a1-2)Man(a1-6)]Man(a1-6)[Man(a1-2)Man(a1-2)Man(a1-3)]Man
# Summary of the method: as §1
# [32] = molecular target: Man(a1-2)Man(a1-3)[Man(a1-2)Man(a1-6)]Man(a1-6)[Man(a1-2)Man(a1-2)Man(a1-3)]Man(b1-4)GlcNAc(b1-4)GlcNAc
# Summary of the method: as §1
# [33] = molecular target: Man(a1-2)Man(a1-3)[Man(a1-6)]Man(a1-6)[Man(a1-2)Man(a1-3)]Man(b1-4)GlcNAc(b1-4)GlcNAc
# Summary of the method: as §1
# [34] = molecular target: Man(a1-2)Man(a1-6)[Man(a1-3)]Man(a1-6)[Man(a1-2)Man(a1-2)Man(a1-3)]Man
# Summary of the method: as §1
# [35] = molecular target: Man(a1-2)Man(a1-6)[Man(a1-3)]Man(a1-6)[Man(a1-2)Man(a1-2)Man(a1-3)]Man(b1-4)GlcNAc(b1-4)GlcNAc
# Summary of the method: as §1
# [36] = molecular target: Man(a1-3)[Man(a1-6)]Man
# Summary of the method: as §1
# [37] = molecular target: Man(a1-3)[Man(a1-6)]Man(a1-6)[Man(a1-2)Man(a1-3)]Man(b1-4)GlcNAc(b1-4)GlcNAc
# Summary of the method: as §1
# [38] = molecular target: Man(a1-3)[Man(a1-6)]Man(a1-6)[Man(a1-3)]Man
# Summary of the method: as §1
# [39] = molecular target: Man(a1-3)[Man(a1-6)]Man(a1-6)[Man(a1-3)]Man(b1-4)GlcNAc(b1-4)GlcNAc
# Summary of the method: as §1
# [40] = molecular target: Man(a1-3)[Man(a1-6)]Man(b1-4)GlcNAc(b1-4)GlcNAc
# Summary of the method: as §1
# [41] = molecular target: Man(a1-3)[Man(a1-6)]Man(b1-4)GlcNAc(b1-4)[Fuc(a1-6)]GlcNAc
# Summary of the method: as §1
# [42] = molecular target: Man(a1-6)Man
# Summary of the method: as §1
# [43] = molecular target: Man(b1-4)GlcNAc
# Summary of the method: as §1
# [44] = molecular target: MurNAc(b1-4)GlcNAc
# Summary of the method: as §1
# [45] = molecular target: Neu5Ac(a2-3)Gal
# Summary of the method: as §1
binder,measurement,setting,value
Microvirin-2 (Microcystis aeruginosa) (protein) MPNFSHTCSSINYDPDSTILSAECQARDGEWLPTELRLSDHIGNIDGELQFGDQNFQETCQDCHLEFGDGEQSVWLVCTCQTMDGEWKSTQILLDSQIDNNDSQLEIGGSMPNFSHTCSSINYDPDSTILSAECQARDGEWLPTELRLSDHIGNIDGELQFGDQNFQETCQDCHLEFGDGEQSVWLVCTCQTMDGEWKSTQILLDSQIDNNDSQLEIG,glycan array binding signal (z-score),[1],-0.129
same,glycan array binding signal (z-score),[2],-0.131
same,glycan array binding signal (z-score),[3],-0.126
same,glycan array binding signal (z-score),[4],-0.138
same,glycan array binding signal (z-score),[5],-0.12
same,glycan array binding signal (z-score),[6],-0.135
same,glycan array binding signal (z-score),[7],-0.142
same,glycan array binding signal (z-score),[8],-0.144
same,glycan array binding signal (z-score),[9],-0.136
same,glycan array binding signal (z-score),[10],-0.14
same,glycan array binding signal (z-score),[11],-0.131
same,glycan array binding signal (z-score),[12],-0.137
same,glycan array binding signal (z-score),[13],-0.134
same,glycan array binding signal (z-score),[14],-0.14
same,glycan array binding signal (z-score),[15],-0.128
same,glycan array binding signal (z-score),[16],-0.135
same,glycan array binding signal (z-score),[17],-0.138
same,glycan array binding signal (z-score),[18],-0.117
same,glycan array binding signal (z-score),[19],-0.122
same,glycan array binding signal (z-score),[20],-0.135
same,glycan array binding signal (z-score),[21],-0.098
same,glycan array binding signal (z-score),[22],-0.136
same,glycan array binding signal (z-score),[23],-0.118
same,glycan array binding signal (z-score),[24],-0.142
same,glycan array binding signal (z-score),[25],-0.124
same,glycan array binding signal (z-score),[26],-0.129
same,glycan array binding signal (z-score),[27],5.28
same,glycan array binding signal (z-score),[28],9.44
same,glycan array binding signal (z-score),[29],4.43
same,glycan array binding signal (z-score),[30],7.03
same,glycan array binding signal (z-score),[31],6.69
same,glycan array binding signal (z-score),[32],3.1
same,glycan array binding signal (z-score),[33],5.79
same,glycan array binding signal (z-score),[34],6.04
same,glycan array binding signal (z-score),[35],13.3
same,glycan array binding signal (z-score),[36],-0.129
same,glycan array binding signal (z-score),[37],7.25
same,glycan array binding signal (z-score),[38],-0.12
same,glycan array binding signal (z-score),[39],-0.013
same,glycan array binding signal (z-score),[40],-0.131
same,glycan array binding signal (z-score),[41],-0.053
same,glycan array binding signal (z-score),[42],-0.127
same,glycan array binding signal (z-score),[43],-0.127
same,glycan array binding signal (z-score),[44],-0.132
same,glycan array binding signal (z-score),[45],-0.129
